Out of some 410,000 compounds screened, about 530 (0.13%) were called active. This list was built around the results that the source calls inconclusive (neither active nor inactive); the mix of calls is not that of the screen. The call rests on the fitted dose curve; in most records, active means well fitted inhibition curve with a large enough effect; inconclusive means small, poorly fitted or top-dose-only effect, or another doubt; inactive means no such curve, though single readings can be large or run the other way. Potencies beside an inconclusive call are fits to weak or partial responses and may not hold up.
Test: qHTS of GLP-1 Receptor Inverse Agonists: Cytotox Screen
Conditions: HEK293 cAMP-luciferase reporter cells, luminescence, 24 h; activity change, negative = inhibition: at 38.3 µM (top of the series) unless noted
Procedure, shortened: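 Cells in DMEM/10% Nu serum/1% pen-strep, 1536-well format. Pre-incubated 12 h, dosed with 23 nL compound, incubated a further 24 h. Luciferase detection, 12 min at room temp, luminescence.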
On the % scale 0 is the no-effect control and ±100 the full control effect; potency means the concentration at half of the fitted maximal effect.

Structure (SMILES)	Potency	activity change, negative = inhibition
C[C@]12CCC3C(CCC4=CC(O)CC[C@@]43/C=N/O)C1(O)CCC2C1=CC(=O)OC1 (some centres undefined)	inconclusive: 0.316 µM [inhibitor, full curve, poor fit]	
O=C(NC(c1ccc(-c2ccccc2)cc1)c1cnccn1)C1CCN(Cc2ccc(Oc3ccccc3)cc2)CC1 (centres undefined)	inconclusive: 11.2 µM [inhibitor, partial curve, poor fit]	
Cc1c(CN2CCC(CO)(Cc3cccc(C(F)(F)F)c3)CC2)c2ccccc2n1C	inconclusive: 11.2 µM [inhibitor, partial curve, poor fit]	
COc1cc(-c2nc3ccc4ccccc4c3c3c2CCC3)cc(OC)c1O	inconclusive: 28.2 µM [inhibitor, single point]	
COC(=O)c1ccc(NC(=O)CSc2nc3ccc(N4C(=O)C5C6C=CC(C6)C5C4=O)cc3s2)cc1 (centres undefined)	inconclusive: 22.4 µM [inhibitor, single point]	
O=C(CCN1CCN2CCCC2C1)N1c2ccccc2Sc2ccc(Cl)cc21 (centres undefined)	inconclusive: 11.2 µM [inhibitor, single point]	
COc1cc([N+](=O)[O-])c2ncccc2c1[N+](=O)[O-]	inconclusive: 10 µM [inhibitor, single point]	
CCOC(=O)c1c(C)n(Cc2ccccc2)c2ccc(OCC(O)CNC(C)(C)C)cc12 (centres undefined)	inconclusive: 28.2 µM [inhibitor, single point]	
Cc1cccc(OCC(=O)N2CCN(Cc3ccncc3)CC2)c1		inactive: -5.45%
COc1cccc(C(c2nnnn2Cc2ccccc2)N2CCC(n3c(=O)[nH]c4ccccc43)CC2)c1OC (centres undefined)	inconclusive: 3.98 µM [inhibitor, partial curve, poor fit]	
FC(F)(F)c1ccc2c(c1)nnn2C1CCN(Cc2nnnn2Cc2ccccc2)CC1		inactive: -10.1%
O=c1[nH]c(=O)n(CC2CCCO2)c(O)c1/C=C1\C=Nc2ccccc21 (centres undefined)	inconclusive: 28.2 µM [inhibitor, single point]	
COc1ccc(NC(=O)C2(C)Cc3c(-c4ccc5c(c4)OCO5)ccnc3O2)cc1 (centres undefined)	inconclusive: 3.55 µM [inhibitor, partial curve, poor fit]	
Cc1ccc(S(=O)(=O)N2CCN(C(=O)COC(=O)Cc3ccccc3)CC2)c(C)c1		inactive: 3.62%
Cc1ccc(N2C(=O)c3[nH]nc(-c4ccc(Cl)cc4)c3C2c2ccc(F)cc2)cc1 (centres undefined)	inconclusive: 11.2 µM [inhibitor, partial curve]	
COc1cc(C2c3cc4c(cc3C(OC3OC5COC(c6cccs6)OC5C(O)C3O)C3COC(=O)C23)OCO4)cc(OC)c1O (centres undefined)	inconclusive: 1 µM [inhibitor, full curve]	
Cc1cccc(/C=N/NC(=O)c2cc(Br)ccc2OCc2ccccc2)n1	inconclusive: 28.2 µM [inhibitor, single point]	
Cc1ccccc1CN1CCCC(C(=O)Nc2ccc(-c3ccn[nH]3)cc2)C1 (centres undefined)	inconclusive: 12.6 µM [inhibitor, single point]	
N/C(=N\[N+](=O)[O-])N1CCN(C(=O)c2ccccc2)CC1	inconclusive: 10 µM [inhibitor, partial curve]	
N=c1c2c(ncn1Cc1ccco1)Oc1ccc3ccccc3c1C2c1ccccc1 (centres undefined)	inconclusive: 10 µM [inhibitor, partial curve, poor fit]	

Structure (SMILES)	Potency	activity change, negative = inhibition
CC1CCN(C(CC(=O)c2ccccc2)C(=O)c2ccccc2)CC1 (centres undefined)	inconclusive: 28.2 µM [inhibitor, single point]	
COc1cccc(N2CCN(C(=O)c3cc(C)oc3C)CC2)c1	inconclusive: 5.01 µM [inhibitor, partial curve]	
COC1CCC(OC2CC(C3(C)CCC4(CC(O)C(C)C(C(C)/C=C(\C)C(=O)C(C)CC(C)C(=O)O)O4)O3)OC3(OC(C4OC(O)(CO)C(C)CC4C)CC3C)C2C)OC1C (centres undefined)	inconclusive: 0.794 µM [inhibitor, full curve, poor fit]	
O=c1[nH]c2ccccc2n1C1CCN(C(c2cc3ccccc3o2)c2nnnn2Cc2ccccc2)CC1 (centres undefined)	inconclusive: 7.94 µM [inhibitor, partial curve]	
O=[N+]([O-])c1cccc(CN2CCN(Cc3ccc(Cl)cc3)CC2)c1		inactive: -0.322%
COc1ccccc1CCNC1CCC(C)CC1 (centres undefined)	inconclusive: 28.2 µM [inhibitor, single point]	
CCOC(=O)[C@]12Cc3cc(OC)ccc3[C@H]1N(C(C)C)C(=O)c1cc(OC)ccc12	inconclusive: 28.2 µM [inhibitor, single point]	
O=C(c1ccc2c(c1)OCO2)C1CCCN(Cc2ccccn2)C1 (centres undefined)	inconclusive: 10 µM [inhibitor, partial curve, poor fit]	
COc1cc(-n2c(=S)[nH]c3ccc(C)cc3c2=O)c(Cl)cc1Cl	inconclusive: 10 µM [inhibitor, partial curve]	
COc1ccc(-c2cc(-c3ccccc3)[n+](C)c(-c3ccccc3)c2)cc1	inconclusive: 7.94 µM [inhibitor, partial curve]	
O=C(Nc1ccc(Cl)c(C(F)(F)F)c1)NC1CC2CCCC(C1)N2C1CC1 (centres undefined)	inconclusive: 28.2 µM [inhibitor, single point]	
CN1CC(C(=O)c2ccc(Cl)cc2)C(c2ccc(Cl)cc2Cl)C1 (centres undefined)		inactive: -26.1%
Cc1cc(NC(=O)COC(=O)C(Nc2ccc(C(F)(F)F)cc2Cl)C(C)C)no1 (centres undefined)	inconclusive: 12.6 µM [inhibitor, single point]	
C=C1C(=O)[C@]23C[C@H]1CC[C@H]2[C@]1(C)[C@@H](OC(C)=O)CC[C@@](C)(C(=O)OC)[C@H]1C[C@@H]3OC(C)=O	inconclusive: 28.2 µM [inhibitor, single point]	
O=[N+]([O-])c1cc(-n2cnnn2)ccc1N1CCC(Cc2ccccc2)CC1	inconclusive: 15.8 µM [inhibitor, single point]	
COc1ccc(OC)c(N=Cc2c(O)n(Cc3ccccc3)c(=S)[nH]c2=O)c1		inactive: 0%
Cc1ccc2c(c1N)C(=O)c1ccccc1C2=O	inconclusive: 2 µM [inhibitor, full curve]	
Cc1ccccc1C(c1ncccc1C)N(C)C(=O)C1CCN(CCOc2ccc(Cl)cc2Cl)CC1 (centres undefined)	active: 10 µM	
COc1ccc(-n2nnnc2C(CCc2ccccc2)N2CCC(n3c(=O)[nH]c4ccccc43)CC2)cc1 (centres undefined)	inconclusive: 11.2 µM [inhibitor, single point]	
CCn1c(NN=O)nc2ccccc21	inconclusive: 8.91 µM [inhibitor, partial curve, poor fit]	

Structure (SMILES)	Potency	activity change, negative = inhibition
CC(=O)OC1(c2ccccc2)CCN(C)C2CCCCC21 (centres undefined)	inconclusive: 28.2 µM [inhibitor, single point]	
CCCCNCc1cc(Br)c(OCc2cccs2)c(OC)c1	inconclusive: 28.2 µM [inhibitor, single point]	
CCOC(=O)C1=C(Cc2ccc(Cl)cc2)C(=O)c2ccccc2C1=O	inconclusive: 10 µM [inhibitor, partial curve, poor fit]	
O=C(CN1C(=O)C2CCCCC2C1=O)Nc1nc(-c2ccc(F)cc2)cs1 (centres undefined)	inconclusive: 28.2 µM [inhibitor, single point]	
COc1ccc2c(c1)CC/C(=C\c1ccc(OC)c(Cn3nc(C)cc3C)c1)C2=O	inconclusive: 28.2 µM [inhibitor, single point]	
O=C(Nc1cc(Sc2nc3ccccc3s2)cc([N+](=O)[O-])c1)c1ccccc1	inconclusive: 11.2 µM [inhibitor, single point]	
CCOc1ccc(-n2c(O)c(N=Nc3c(C)n(C)n(-c4ccccc4)c3=O)c(=O)[nH]c2=O)cc1	inconclusive: 12.6 µM [inhibitor, single point]	
O=c1cc(-c2ccc(O)c(O)c2)oc2c(C3O[C@H](CO)[C@@H](O)[C@H](O)[C@H]3O)c(O)cc(O)c12 (some centres undefined)	inconclusive: 0.447 µM [inhibitor, full curve, poor fit]	
CN1CCN(c2cc(N3CCc4ccccc4C3)c(F)cc2[N+](=O)[O-])CC1	inconclusive: 28.2 µM [inhibitor, single point]	
CCN(CC)CCn1c(=N)n(CCOc2ccccc2Cl)c2ccccc21	inconclusive: 22.4 µM [inhibitor, single point]	
COc1ccc(NP(=O)(Oc2ccc(Cl)cc2)Oc2ccc(Cl)cc2)cc1OC	inconclusive: 17.8 µM [inhibitor, partial curve, poor fit]	
CCC(C)c1ccc(NC(=O)COc2c(F)c(F)c(C(F)(F)F)c(F)c2F)cc1 (centres undefined)	inconclusive: 28.2 µM [inhibitor, single point]	
Cc1cc(C)cc(-n2c(O)c(C=Nc3ccc(N4CCOCC4)cc3)c(=O)[nH]c2=S)c1		inactive: 3.68%
Cc1cccc(Nc2nc(N)c([N+](=O)[O-])c(NCc3ccccc3)n2)c1	inconclusive: 12.6 µM [inhibitor, single point]	
CCCCCSc1cc(OC)c(CCN)cc1OC	inconclusive: 28.2 µM [inhibitor, single point]	
CN1C(=O)NC(=O)/C(=C\c2ccc([N+](=O)[O-])o2)C1=O	inconclusive: 12.6 µM [inhibitor, single point]	
CCOc1cc(/C=N/Nc2nnc(C)n2N)ccc1OC(C)=O	inconclusive: 28.2 µM [inhibitor, single point]	
S=C(NCc1ccc(Cl)cc1Cl)NC1CCCCC1	inconclusive: 11.2 µM [inhibitor, single point]	
O=C(N/N=C/c1ccccc1OC(=O)N1CCOCC1)c1cccs1	inconclusive: 12.6 µM [inhibitor, single point]	

Source: PubChem BioAssay AID624418 (National Center for Advancing Translational Sciences (NCATS), 2012)
